# Measurements reported in the supplement of paper PMC3334620.
# In all, about 33,000 sequences were measured (“E-score (-0.5 to 0.5)”: median about -0.036, highest 2% from about 0.37 on). This is one part of the list.
# Target: T1, Yer064c (UniProt P40041)
# T1 sequence: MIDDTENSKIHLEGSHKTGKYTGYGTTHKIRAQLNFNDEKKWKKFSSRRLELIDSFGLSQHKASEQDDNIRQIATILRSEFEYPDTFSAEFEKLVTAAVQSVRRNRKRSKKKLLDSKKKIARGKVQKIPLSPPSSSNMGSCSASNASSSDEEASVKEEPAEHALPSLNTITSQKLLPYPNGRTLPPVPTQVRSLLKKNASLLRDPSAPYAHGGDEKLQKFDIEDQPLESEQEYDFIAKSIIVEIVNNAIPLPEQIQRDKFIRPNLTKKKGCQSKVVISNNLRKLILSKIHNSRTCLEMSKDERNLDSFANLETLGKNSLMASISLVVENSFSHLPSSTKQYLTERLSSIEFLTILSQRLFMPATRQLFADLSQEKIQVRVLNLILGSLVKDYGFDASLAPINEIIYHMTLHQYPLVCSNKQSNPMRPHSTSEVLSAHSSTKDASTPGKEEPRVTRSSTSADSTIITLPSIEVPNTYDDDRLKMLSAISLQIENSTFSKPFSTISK
# Test: PBM E-score (8-mer binding enrichment) (E-score (-0.5 to 0.5)); higher = stronger / more preferred TF binding; most listed sequences are background and not binding sites
# Conditions: protein concentration: 200 nM; construct: GST-full length
# Method in brief: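 For each ungapped eight-base word taken together with its reverse complement, the Universal PBM Analysis Suite assigned an E-score. Binding data came from GST-tagged yeast transcription factors, applied at about 100-200 nM, on universal all-10-mer Agilent arrays made double-stranded by primer extension. Fluorescent anti-GST marked bound protein, and scans were normalised with masliner.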
row,Sequence,PBM E-score
1,ACAGCGGA,-0.121
2,AAGCGGGA,-0.239
3,CCAACTGC,0.00331
4,AACCGCAC,-0.0658
5,AGGGAATA,-0.175
6,TATATATA,0.147
7,ATGCATGG,-0.0397
8,AGACCTCC,-0.138
9,CAAGCATC,-0.337
10,ATCTGGTA,-0.17
11,GTAAGTTA,0.0864
12,ACGTACGC,-0.124
13,CGTTATTA,0.00867
14,ACAAGGAC,0.2
15,CTCGTCTC,-0.0892
16,CTCTTCAG,-0.172
17,GAAGTGGC,-0.115
18,CGTTTGTA,-0.0911
19,GCCGTTTA,-0.0806
20,CCTACGGA,-0.115
21,CCGACATC,-0.262
22,AGGCGCTG,-0.102
23,ATGTTCAC,-0.136
24,GAGAATCA,0.392
25,TATCCGCA,0.00068

row,Sequence,PBM E-score
1,GATGTCAA,0.014
2,CATGGGGA,-0.0954
3,ATTCCAGA,0.0393
4,AGTGCGGG,-0.196
5,CATGCTCC,-0.197
6,TGGAAAAA,-0.074
7,CGACCAAG,-0.148
8,AGTACTAG,0.147
9,AGAACAGA,-0.0227
10,CTTTTGAC,0.161
11,CGATAAAA,-0.0985
12,ACCCTTAC,-0.0967
13,CCTCAGGC,-0.147
14,AACCTTGC,-0.0882
15,CTTTCAAC,-0.0721
16,CGGACTCC,0.191
17,AGGGTTAG,-0.0462
18,ACATATGA,0.233
19,GTCGTCCA,0.108
20,AAGACCGG,-0.265
21,CGGTGAAC,-0.0471
22,CGATATAG,-0.0616
23,CACGTCTG,0.0273
24,CAGCTAGG,-0.22
25,ACGTCACA,0.00414

row,Sequence,PBM E-score
1,GCGGAACA,0.0307
2,GGGCGACC,-0.298
3,AAATACAC,-0.0541
4,CAACTGCA,-0.0203
5,AGCGCCCC,-0.313
6,CTTTGTTA,0.0755
7,CACGCTCG,-0.00798
8,AGTGCAAA,0.11
9,ACCCGTCA,-0.0767
10,CGGGACCC,-0.259
11,ATTATGAC,0.277
12,CTTGAGGA,-0.0149
13,AATGGGAC,-0.0785
14,CACGATCG,0.12
15,CAGGTGCA,-0.139
16,GTGAGCAC,0.0206
17,CAAATCGG,-0.0978
18,CAACATAA,0.0238
19,AACCCTGG,-0.0176
20,AGTGGGTG,0.152
21,CTTTTTGA,0.195
22,CCTTGACA,-0.237
23,CGCTGTTA,-0.152
24,AATGTGTG,0.0939
25,ACTTAGCC,0.141

row,Sequence,PBM E-score
1,ACATATCT,0.0318
2,GTGTCGAA,-0.00343
3,CCACCACA,-0.168
4,CCGACTTA,0.263
5,AACAAAGG,-0.0406
6,AGCAGGAG,-0.0429
7,AGAGTCAG,0.457
8,ATTGTGTA,0.0623
9,AACCTAAA,0.0669
10,AGATGATA,0.0471
11,CACACTTC,-0.07
12,CCCGTCAA,-0.171
13,CATTGCCG,-0.131
14,AGTAGACA,0.1
15,GATGAATA,0.176
16,GAAGCCAC,-0.00765
17,AAACAGCT,0.00527
18,GAAGCAGA,-0.0206
19,AGGTACGA,0.00497
20,AATGAATC,0.39
21,CATGAGTC,0.481
22,TAGAGCCA,-0.0413
23,CACTTCTG,-0.157
24,AGCTGCTA,-0.165
25,CACTAATC,0.191

row,Sequence,PBM E-score
1,GCTACGAC,0.13
2,CATTTTTA,-0.173
3,CAGCGCGC,-0.264
4,AACGACTC,0.427
5,ACCGGCAG,-0.243
6,CTGGAAAC,-0.0299
7,GCTACACA,0.161
8,CTACATTC,-0.22
9,GCCCGTCA,-0.35
10,GGAAAACC,-0.286
11,CTATTCCC,-0.179
12,ATTGGGAA,0.00164
13,GCGGCCCA,-0.19
14,GACGTTCA,-0.12
15,TGCTTTAA,0.0103
16,CATGTTCA,-0.244
17,AATCCTGA,0.175
18,CCGAGTGC,0.0704
19,CCCTTACA,-0.0568
20,CGTATACA,-0.0369
21,CACGAATC,0.359
22,ATTAGTAA,0.12
23,ATCGTTCG,0.0337
24,GAGCCCTA,-0.118
25,GTTCTTGA,-0.0575

row,Sequence,PBM E-score
1,CATCCATC,-0.0508
2,GCGTCGAC,0.1
3,AGCTGTCA,-0.0221
4,AACGGCTC,0.0682
5,CTCCACTC,-0.18
6,CGCCTTAG,-0.29
7,CAGAAACC,-0.0269
8,CACAGGGA,-0.166
9,CGTTCGGA,-0.0482
10,AACGCCCA,-0.237
11,CAAGGCTG,-0.116
12,GGCAGTCA,0.445
13,CATTCACC,-0.166
14,CGTGCGTC,-0.13
15,CCTAAAAG,0.0342
16,CAGGAAAG,-0.0583
17,AACGTACA,-0.132
18,GGTAACTA,0.0844
19,CGGCCGGC,-0.134
20,ACTGTGGC,-0.0765
21,ACGCGTGA,0.213
22,CGTTGATC,0.0563
23,GAGGAGCC,0.00368
24,CCTAGCCC,-0.253
25,AAAGATGT,-0.14

row,Sequence,PBM E-score
1,CACAGGCA,-0.0869
2,AACGGAGA,-0.142
3,ATATCGCG,-0.0791
4,GCTAGTAA,-0.0158
5,ACTCCAGG,0.19
6,GAGTTCGC,0.0786
7,CAATCTAA,-0.0475
8,AGTGTATA,-0.0556
9,AGGTTCAC,-0.302
10,CGCGTGAG,0.115
11,AGCGAGCT,-0.144
12,AAACTACT,0.113
13,GACCGGTA,-0.0165
14,AATTCCGC,-0.24
15,AAAAGCAT,-0.188
16,GATTCAAC,0.385
17,GTGCGGAA,0.0343
18,ATGACCAC,0.193
19,GGACCATA,-0.109
20,CAGTCTGC,0.0403
21,GGGGCTTA,-0.206
22,AGGGACAC,-0.00854
